85 molecules from ChEMBL document CHEMBL4888484, “Replenishing the malaria drug discovery pipeline: Screening and hit evaluation of the MMV Hit Generation Library 1 (HGL1) against asexual blood stage Plasmodium falciparum ,using a nano luciferase reporter read-out” (2022) can be followed below.

Hit rate of the full screen: of about 150,000 compounds, about 540 (0.36%) showed an effect of 50% or more. This is one part of the list.

What is called % Inhibition is the relative decrease from the control value, in per cent.

The assay deals with Plasmodium falciparum. The assay is described as follows: Primary screen in NF54 nanoGlo assay, in single point, at 2uM, 72h; a lower Z score goes with more inhibition. It counts as functional, Erythrocyte. Particulars: timepoint 72 hour.
For the molecule `C=CCC(C(=O)N1CCC(O)(CO)C1)c1ccccc1` (stereo not given), the “% Inhibition” value is listed as -12% and the Z score is listed as 2.4.
The corresponding values for `Nc1nccc(-c2ccc(-n3cncn3)cc2)n1` are -2% and 0.22.
In the case of `CC(C)n1ccc(Cn2cnc(C#N)n2)n1`, the “% Inhibition” value was found to be 4% and the Z score is -0.68.
Turning to `O=C(O)C1Cc2c([nH]c3ccccc23)C(/C=C/c2ccccc2)N1` (stereo not given), the “% Inhibition” value is listed as 36% and the Z score is on record as -0.97.
`CC(=O)N1CCN(C(=O)c2nn(-c3ccc(C)cc3)c(=O)n(Cc3ccc(C(F)(F)F)cc3)c2=O)CC1`: the “% Inhibition” value is recorded as -1% and the Z score turned out to be 0.1.
Taken in the same sequence, the figures for `O=C(c1cc2ccccc2o1)N1Cc2cncnc2C1` were -16% and 2.75.
Taken in the same sequence, the figures for `O=C1CN(S(=O)(=O)CCC(F)(F)F)CCN1c1ccccn1` were 18% and -2.32.
For `Cc1cnc(C(=O)N(C)CCCc2nccn2C)cn1`, the “% Inhibition” value was -17% and the Z score was found to be 3.15.
`C[C@H]1CN(c2ncnc3ccccc23)C[C@@H]1CS(N)(=O)=O`: the “% Inhibition” value is reported as 0% and the Z score was found to be 0.04.
Taken in the same sequence, the figures for `Cc1ccc(-c2nc(CN[C@H]3CCc4ncnn4C3)cs2)o1` were -21% and 1.79.
The corresponding values for `COCC1CCN(S(=O)(=O)N(C)Cc2nc3cc(Cl)ccc3[nH]2)CC1` are -6% and 0.91.
Taken in the same sequence, the figures for `NCCNCCCOc1ccc(Br)cc1Cl` were 1% and -0.17.
Take `CN(C)CCCNC(=O)c1cccc(Cl)c1`: the “% Inhibition” value is reported as 2% and the Z score is -0.41.
Taken in the same sequence, the figures for `C[C@H]1C(=O)NCCN1Cc1cnns1` were 17% and -2.
In the case of `COC(=O)C1CCC(Nc2ccc(C)c(C(=O)NC(C)C)c2)CC1` (stereo not given), the “% Inhibition” value was determined as 6% and the Z score is recorded as -0.65.
On to `CC(C)c1nnc(NCc2ccc3c(c2)CCO3)o1`, for which the “% Inhibition” value is 15% and the Z score is listed as -1.33.
Consider `Cc1ccc(S(=O)(=O)n2cc(C)[nH]c2=O)cc1`, for which the “% Inhibition” value is -23% and the Z score was 2.15.
Taken in the same sequence, the figures for `COc1cc(-c2nccn2C[C@H](C)Oc2cccnc2)cc2c1OCO2` were -10% and 0.96.
Taken in the same sequence, the figures for `CC(C)c1ccc(C(=O)NCCCN2CCCO[C@@H](C)C2)nc1` were -8% and 1.3.
Taken in the same sequence, the figures for `Cc1nc(CN2C[C@H]3CCC[C@@H](C2)N(C)C3)n(C)c1C` were -1% and 0.24.
Regarding `Cc1nccc(-c2cccc(NC(=O)c3sccc3S(=O)(=O)N3C(C)CCCC3C)c2)n1` (stereo not given), the “% Inhibition” value worked out at 3% and the Z score is recorded as -0.41.
Taken in the same sequence, the figures for `Cc1nc(NCc2ccccc2)sc1-c1ccn(C)n1` were -13% and 1.46.
Consider `CO[C@H]1C[C@H]2CN(C(=O)NCc3ccc(C)cc3)[C@@H](C)C(=O)N2C1`, for which the “% Inhibition” value is 12% and the Z score was -1.5.
Taken in the same sequence, the figures for `COc1ccc(C)cc1NC(=O)[C@H]1CN(S(=O)(=O)C2CC2)CC12CCCCC2` were -4% and 0.69.
The corresponding values for `Cc1ccc(Cc2nc(N3CCN(C(=O)c4ccco4)CC3)c3cnn(-c4ccccc4)c3n2)cc1` are -10% and 1.83.
Taken in the same sequence, the figures for `Cc1noc(C)c1CO[C@H]1COCC[C@@H]1NC(=O)c1c(C)noc1C` were -3% and 0.54.
`CCc1ccc(N2C(=O)N(C)C(C)(C)C2=O)nc1`: the “% Inhibition” value is on record as -11% and the Z score is recorded as 1.97.
Taken in the same sequence, the figures for `O=C(Cc1ncc(C(F)(F)F)cc1Cl)NCc1cccnc1` were 0% and -0.02.
Taken in the same sequence, the figures for `CN(C(=O)CCS(C)(=O)=O)c1nsc2ccccc12` were -9% and 1.42.
Regarding `CCS(=O)(=O)NCCCNC(=O)N(C)[C@@H](C)C1CC1`, the “% Inhibition” value is -7% and the Z score is on record as 0.69.
In the case of `CCOC(=O)CC1CCN(CC2CC2)CC1`, the “% Inhibition” value is on record as -9% and the Z score turned out to be 0.92.
The corresponding values for `C[C@@H]1CN(C[C@@H]2CN(c3noc(-c4ccccc4)n3)C[C@@H]2CO)C[C@H](C)O1` are -15% and 2.5.
Taken in the same sequence, the figures for `COc1ccc(S(=O)(=O)N2C[C@@H]3C[C@H](C2)c2c(NC(=O)c4cncnc4)ccc(=O)n2C3)cc1` were -8% and 1.5.
Turning to `COC(=O)Nc1ccc(F)c(Cl)c1`, the “% Inhibition” value was determined as 3% and the Z score is given as -0.45.
As to `Cc1c(Cl)cccc1NC(=O)CCNS(C)(=O)=O`, the “% Inhibition” value was -8% and the Z score is on record as 1.04.
With `Cn1c(=O)c2c(=O)c(Cl)c(N)[nH]c2n(C)c1=O`, the “% Inhibition” value was -31% and the Z score stood at 3.64.
For the molecule `CC(C)OCCN(C)C(=O)Cc1ccn[nH]1`, the “% Inhibition” value is -4% and the Z score turned out to be 0.39.
For `CS(=O)(=O)N1CCC(C(=O)Nc2c(C(N)=O)sc3nc(C(F)F)cc(C4CC4)c23)CC1`, the “% Inhibition” value is 35% and the Z score was -5.12.
In the case of `CCN1C(=O)[C@@]2(c3ccccc31)[C@@H]1C(=O)N(c3ccccc3F)C(=O)[C@@H]1[C@@H]1CCCN12`, the “% Inhibition” value is reported as -5% and the Z score amounted to 0.42.
In the case of `N#Cc1cnc(N2CCC[C@@H]2CCC2CCCC2)cn1`, the “% Inhibition” value is -7% and the Z score is listed as 1.22.
Taken in the same sequence, the figures for `Cc1ccccc1C(=O)N[C@@H]1CCCC[C@H]1NC(=O)C1CCN(C(=O)c2cc(Cl)cc(Cl)c2)CC1` were -10% and 1.67.
Taken in the same sequence, the figures for `CCn1c(-c2cccc(C(=O)Nc3cc(OC)cc(OC)c3)c2)nc2cccnc21` were 1% and -0.11.
On to `Cc1cc(C)c(C(=O)NC(C)COC2CCOC2)c(C)c1` (stereo not given), for which the “% Inhibition” value is -6% and the Z score is on record as 1.1.
Consider `Cc1nc(N2CCC(C(=O)Nc3cc(F)ccc3F)CC2)c2c(C)c(C)oc2n1`, for which the “% Inhibition” value is reported as -15% and the Z score is 1.55.
In the case of `Cc1n[nH]c(CN2C[C@H]3CCC[C@@H](C2)N(C)C3)c1Cl`, the “% Inhibition” value was -19% and the Z score came out at 2.42.
In the case of `CCN(CC)CC#C[C@H](C)OC(=O)c1cccc(-n2cccn2)n1`, the “% Inhibition” value was 9% and the Z score is given as -1.14.
The corresponding values for `O=C(Nc1ncccc1-c1ccccc1)c1ccccc1C(F)(F)F` are -14% and 1.53.
In the case of `CCNC(=O)N(Cc1nc(CC)c(Cc2cccc(OC)c2)c(=O)[nH]1)Cc1ccco1`, the “% Inhibition” value is -2% and the Z score came out at 0.29.
Taken in the same sequence, the figures for `COc1cc(CC(=O)N2CCN(c3cc(C)n4cnnc4n3)CC2)cc(OC)c1` were 0% and -0.09.
Taken in the same sequence, the figures for `COc1ccc(CCC(=O)N(C)C)cc1F` were -9% and 1.28.
Consider `COc1ccc(NS(=O)(=O)c2c(C)sc(C)c2-c2onc(C)c2C)cc1`, for which the “% Inhibition” value is reported as -6% and the Z score amounted to 1.05.
The corresponding values for `COc1ccc(N/C(N)=N/c2nc(=O)c3c([nH]2)CCCC3)cc1` are -13% and 1.76.
Taken in the same sequence, the figures for `C[C@H](OC(=O)CNC(=O)c1cccc(F)c1)C(=O)N1CCCCCC1` were 9% and -1.42.
`CCc1cccc(NC(=O)N2CCN(c3nccs3)CC2)c1`: the “% Inhibition” value is recorded as -2% and the Z score was 0.21.
Taken in the same sequence, the figures for `Cc1nccn1CCN(C)C[C@]1(c2ccccc2)CCOC1` were -5% and 0.88.
The corresponding values for `CC1=NN(c2ccc(NC(=O)OCC(F)(F)F)cn2)C(=O)C1` are -1% and 0.14.
As to `O=S(=O)(C[C@H]1CC2(CCC2)CO1)NCc1nccn1C(F)F`, the “% Inhibition” value was -1% and the Z score is 0.13.
Taken in the same sequence, the figures for `CCO[C@@H](C)c1nccn1CCCC#N` were -4% and 0.66.
Taken in the same sequence, the figures for `COc1ccc(COCC(=O)N(C)c2cccnc2C)cn1` were -18% and 2.3.
The corresponding values for `CCc1oc2c(NC(=O)N3CCN(CCOCCO)CC3)cccc2c1C` are -5% and 0.94.
Regarding `Cc1c(Cl)cc(C(=O)NC[C@H]2CN(S(C)(=O)=O)CCO2)cc1Cl`, the “% Inhibition” value is on record as 2% and the Z score was -0.34.
With `CN(C)c1cc(C(=O)N[C@H](c2cccs2)C2(CO)CCC2)ccn1`, the “% Inhibition” value worked out at 2% and the Z score is listed as -0.32.
With `O=C(NCc1nnc(C2CCCO2)[nH]1)N1CCCC2CCCC21` (stereo not given), the “% Inhibition” value was -1% and the Z score came out at 0.2.
Take `O=C(NCc1ccco1)c1cc2n(n1)CCN(Cc1ccc(C(F)(F)F)cc1)C2=O`: the “% Inhibition” value is given as 4% and the Z score is given as -0.62.
Taken in the same sequence, the figures for `NC(=NOCc1sccc1Cl)c1ccsc1` were 4% and -0.45.
The corresponding values for `O=C1C2CCC(c3ccccc3)CC2C(=O)N1c1ccc(Oc2ccc(Cl)cc2Cl)cc1` (stereo not given) are -2% and 0.21.
`CCOc1ccc(NC(=O)Cn2c(N3CCOCC3)nc3cc(C)n(C)c3c2=O)cc1`: the “% Inhibition” value is -15% and the Z score is recorded as 1.56.
Taken in the same sequence, the figures for `CCc1[nH]nc(NC(=O)c2cccc(-n3cccn3)n2)c1C` were 1% and -0.12.
Taken in the same sequence, the figures for `O=C1CCC[C@@H]2CN(S(=O)(=O)Cc3ccccc3)C[C@@H]2N1` were 27% and -3.07.
The corresponding values for `Cc1nc2ccccn2c1CN(C)C(=O)c1cc(C#N)c[nH]1` are -16% and 3.11.
Consider `Cc1ccccc1C(=O)N1CC[C@@H](c2cccs2)S(=O)(=O)CC1`, for which the “% Inhibition” value is listed as -14% and the Z score came to 2.33.
`CC(=O)c1cccc(NC(=O)[C@@]23CCC(=O)N2c2ccccc2C(=O)N3C)c1`: the “% Inhibition” value is on record as 84% and the Z score was -11.29.
For the molecule `O=c1[nH]cccc1S(=O)(=O)N1CCN(c2ccccc2)CC1`, the “% Inhibition” value is on record as -8% and the Z score came out at 0.92.
Taken in the same sequence, the figures for `Cc1ccccc1-c1cnc(Oc2ccc(C(=O)NCCC(C)C)cc2)nc1` were -7% and 0.88.
The corresponding values for `CC[C@@H](CO)NC(=O)NCc1snnc1C(C)C` are 0% and 0.07.
The corresponding values for `COc1ncc(-c2nc(-c3ccccc3F)no2)c(C)n1` are -4% and 0.43.
Take `Cc1nnc(N2CCOCC2)c2nn(-c3ccccc3Cl)c(C)c12`: the “% Inhibition” value was -34% and the Z score is 4.
On to `CC(=O)N[C@@H]1CN(C(=O)CCc2nc3ccccc3[nH]2)C[C@H]1CO`, for which the “% Inhibition” value is reported as -4% and the Z score is on record as 0.64.
Taken in the same sequence, the figures for `Cn1c(C2CCN(C(=O)c3ccnnc3)CC2)nc2ccccc21` were -13% and 2.46.
With `COc1ccc(OCc2nc(CCN(C)S(=O)(=O)c3ccc(C(C)C)cc3)no2)cc1`, the “% Inhibition” value is -4% and the Z score turned out to be 0.37.
`CCc1ccc(OCc2nnc(C3CCC3)n2C)c(OC)c1`: the “% Inhibition” value is -6% and the Z score is on record as 0.89.
For the molecule `Cc1ccc(C(=O)NCc2ccc(N(C)c3ccccc3)nc2)c(=O)[nH]1`, the “% Inhibition” value was -1% and the Z score was 0.13.
Taken in the same sequence, the figures for `CC(C)C(CNC1CCCOCC1)ONC(=O)OC(C)(C)C` (stereo not given) were -7% and 0.98.
Taken in the same sequence, the figures for `COc1ccccc1N1C(=O)[C@@H]2Cc3c([nH]c4ccccc34)C(C)(C)N2C1=O` were 9% and -1.74.
Taken in the same sequence, the figures for `CC(=O)N(Cc1ccc(NCc2cnc3ccnn3c2)cc1)C(C)C` were -5% and 0.71.
